The supplement of paper PMC11417369
± gives the standard deviation of the averaged measurements. The list shows a part of the results.

Tested on: PfAP2-G AP2 domain (GST-tagged)
Experiment: gcPBM binding intensity (ln(normalized median fluorescence intensity)); higher = stronger DNA binding
Procedure, shortened: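 GST-tagged P. falciparum DNA-binding domains, expressed in E. coli (about 25 μg on average), were applied for 1 h to an Agilent 4 × 180k array of primer-extended double-stranded 36-bp intergenic genomic probes plus negative controls. The binding buffer was 1× PBS with 1% milk, 0.2 mg/ml BSA, 0.5% salmon testes DNA and 0.03% Triton X-100. Bound protein was detected with Alexa488 anti-GST antibody and scanned at 488 nm. Binding intensity is the highest Masliner-normalised natural-log median intensity across replicate spots of either probe orientation.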

Row | Sequence | gcPBM binding intensity (ln)
1 | TAAAATTTGCGATGCACACAGAATAGCTAATATGAC [CACACA_site2995] | 10.3 ± 0.28
2 | CATAAATTAAAACACACACACACAAAAAAAAAAAAA [CACACA_site2262] | 9.88 ± 0.59
3 | AGTTATTTTAAATGTAGTACACAAAAGAAATATTAA [XGTACX_site4092] | 11.6 ± 0.94
4 | TACTATTTAAAATTTGAACACACATTATTTATTTTA [CACACA_site9020] | 9.94 ± 0.24
5 | TTTATTTAAAAAATAAAAAAAAAAAAAAAAAAAAAA [CACACA_negctrl_site1670] | 9.54 ± 0.22
6 | TTTAAAAATATATATTGTACATATATATATCTATGA [XGTACX_site3556] | 10.9 ± 0.61
7 | ATAAAAATTAAAAGGAGTACTTAAATATTAAGATGG [XGTACX_site4815] | 11.5 ± 0.71
8 | AACATAAAAATTGAAGCACACACACTAATGAAATAC [CACACA_site8287] | 10.5 ± 0.13
9 | ACAAATCTATAAGAGTGTACGAACAGTAAAGGAATT [XGTACX_site2070] | 11.2 ± 0.64
10 | CAGTTGGAAGGAAAGTGTACATAAAAAAAAATATAA [XGTACX_site8784] | 11.5 ± 0.93
11 | AAAATACCATTTGAAACACACAAAAAAAAAAAAAAT [CACACA_site2981] | 9.83 ± 0.042
12 | TATACAATATATATAACACACATATTTATATAAAAT [CACACA_site5061] | 9.75 ± 0.18
13 | AATATATTTCGAGATACACACATATATAAAAAAAAA [CACACA_site3398] | 10.2 ± 0.4
14 | AAAAAAAAAAAAAAGACACACAATGTGAAATAATAA [CACACA_site804] | 10.1 ± 0.11
15 | AATAGAACAAATAAAACACACACATATATATATATA [CACACA_site8893] | 9.9 ± 0.23
16 | ATATATCACAATAAAATTTATAGAATTTTAAATAAG [TGCATGCA_negctrl_site437] | 9.685 ± 0.078
17 | AAAATAAAATAAAATACACACATACATACATACAAA [CACACA_site5366] | 10.01 ± 0.028
18 | CAATAAAGAGGGAATTGTACTTTAAATATCCCTCTT [XGTACX_site1991] | 11 ± 0.61
19 | TCTTATTTTTTTATATATACAAAGTTTTATATATAT [GTGCAC_negctrl_site314] | 9.915 ± 0.049
20 | TTTTAAAGAAAATATTTTATCATTATTTTTTGTACT [CACACA_negctrl_site1648] | 9.84 ± 0.25
21 | TTTTAAAATTTTTTTTTTTTTTTTTTATGAACAAGT [GTGCAC_negctrl_site124] | 9.73 ± 0.35
22 | AATATTTTAAATATTGCATGCAATGAAAAATGTAAA [TGCATGCA_site139] | 9.98 ± 0.12

Row | Sequence | gcPBM binding intensity (ln)
23 | TATTTTATTGTTGTTATACACACCATATAAAATATT [CACACA_site1630] | 10.1 ± 0.12
24 | ACTTGACACCAACACACACACATATATAAAAAAAAA [CACACA_site756] | 10.4 ± 0.49
25 | GTTCAATCGGGTGTTACTTCAAACAAGGAACAACAA [TGCATGCA_negctrl_site471] | 10.4 ± 0.42
26 | ATAGTAAATATAAAAAGTACTGATTCTTAAATTGTT [XGTACX_site5972] | 11 ± 0.66
27 | ATAATATAAATAAAAACACACACAATCGTACATATA [CACACA_site9223] | 11.1 ± 0.6
28 | AACAAAAATGAAAAAACACACATAACATATATAAAT [CACACA_site740] | 9.94 ± 0.014
29 | AAAAAAAAAAAAAAAGTGCACTGAAAATATATTGAA [GTGCAC_site9395] | 10.8 ± 0.56
30 | TTTTTAATTATTTATATAACGATAATCCTTACATAA [TGCATGCA_negctrl_site180] | 9.635 ± 0.007
31 | ATATAATATATGTAAGTGCGCTTATAAATAAAACGA [GTGCAC_site9841] | 10.1 ± 0.19
32 | ATATATTGATATATGTGTACATAGCTTATTTCATTT [XGTACX_site1800] | 11.4 ± 0.84
33 | TATATAGAAAACAAGGCATGCAAATAACAAATTGTG [TGCATGCA_site473] | 10.2 ± 0.19
34 | ATATAATATATATGGTGTACATTTTTTAGTGCTATT [XGTACX_site1662] | 11.4 ± 0.76
35 | TCTTTTTTTTTTTATTGTACAAGAAAAGGAAAAAAT [XGTACX_site3717] | 11.1 ± 0.99
36 | ATATTTTTATATTAGTGTACTTATTATAATGTATAG [XGTACX_site8185] | 11.5 ± 1
37 | TAAAAGAATAAAAGTAGTACTTTTTTTTATATTAGA [XGTACX_site368] | 11.4 ± 0.93
38 | AAAAAGTGACTCCTTACACACTTTACATAATTTAGT [CACACA_site4606] | 10.2 ± 0.13
39 | ATATACACCGTTGAATGTACATAAATAATATTAATA [XGTACX_site2893] | 11.1 ± 0.57
40 | ATAATATGTAATATTACACACAATTCATCATTTTTT [CACACA_site3159] | 9.845 ± 0.092
41 | AGTACATTTTTTTTAATAGGAAAAAAAATATTTATT [TGCATGCA_negctrl_site575] | 10.5 ± 0.3
42 | AAGTATTATTTTTATGCATGTGAAGTGCAAAATAAA [TGCATGCA_site198] | 10.3 ± 0.28
43 | TAAATATATATATATGTACACACTCCAATACATATA [CACACA_site8858] | 11.3 ± 0.71
44 | TATATATATATTATATGTACATATTCCTATATATAC [XGTACX_site7071] | 11.3 ± 0.87
